In all, about 410,000 compounds went through this assay and about 6,400 (1.6%) were called active. Inconclusive means that the source gave no clear call. Such entries were picked first, then a sample of the others. Calls follow the shape of the dose curve; as a rule, active = well fitted inhibition curve with a large enough effect; inconclusive = small, poorly fitted or top-dose-only effect; inactive = no such curve, though single readings can be large or run the other way. No potency is given beside an inconclusive call; the fits are too rough.
Each compound was assayed against Glucagon-like peptide 1 receptor (Homo sapiens) (UniProt P43220) (assay: qHTS of GLP-1 Receptor Inverse Agonists (Inhibition Mode)). Details: HEK293 GLP-1R CRE-luciferase, luminescence, 24 h, GLP-1R form is constitutively active; activity change, negative = inhibition: at 38.3 µM (top of the series) unless noted.
Outline: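 Stable HEK293 clone (constitutively active GLP-1R + cAMP-response luciferase); 200 cells/uL plated, 12 h pre-culture, compound 24 hr, 37 deg C/5% CO2; detection reagent 12 min RT; luminescence.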
% is scaled to controls: 0 for no effect and ±100 for the full control effect; potency is read from the fitted curve at half-maximal effect; tags tell the direction and shape of the fitted curve.
Also: nearly all actives have a fitted effect of over 55% in size.

Sequence of UniProt P43220 (P43220 whole entry, looked up): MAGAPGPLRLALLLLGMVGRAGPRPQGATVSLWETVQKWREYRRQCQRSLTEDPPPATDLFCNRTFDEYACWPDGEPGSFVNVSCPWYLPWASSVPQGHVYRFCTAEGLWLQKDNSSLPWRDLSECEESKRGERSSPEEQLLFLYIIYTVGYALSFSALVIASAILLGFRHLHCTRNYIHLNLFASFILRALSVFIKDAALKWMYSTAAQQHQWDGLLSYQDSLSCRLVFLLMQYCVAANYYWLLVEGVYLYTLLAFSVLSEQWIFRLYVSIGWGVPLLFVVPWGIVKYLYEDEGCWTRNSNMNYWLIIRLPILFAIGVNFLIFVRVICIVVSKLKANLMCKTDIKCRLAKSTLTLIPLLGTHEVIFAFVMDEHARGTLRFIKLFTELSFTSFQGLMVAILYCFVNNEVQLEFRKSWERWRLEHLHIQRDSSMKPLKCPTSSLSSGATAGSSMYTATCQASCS

| Structure (SMILES) | Potency | activity change, negative = inhibition |
| --- | --- | --- |
| CC1(c2ccccc2Br)NC(=O)N(CC(=O)N2CCc3ccccc3C2)C1=O (configuration not stated) | inconclusive [inhibitor, partial curve, poor fit] |  |
| CCOc1ccc(Nc2nc(C)c(NC(=O)c3cccc(OC)c3)c(Nc3ccc(OCC)cc3)n2)cc1 | inconclusive [inhibitor, partial curve, poor fit] |  |
| CN1CCN(c2cc(N3CCc4ccccc4C3)c(F)cc2[N+](=O)[O-])CC1 | inconclusive [inhibitor, partial curve, poor fit] |  |
| Cc1ccc[n+](CC(=O)c2ccc(Cl)cc2)c1 |  | inactive: 15% |
| C[C@@H]1CN([C@H](C)CO)S(=O)(=O)c2ccc(Br)cc2O[C@@H]1CN(C)Cc1ccc(-c2ccccc2)cc1 | inconclusive [inhibitor, single point] |  |
| Cn1c(SCC(=O)N2CCN(c3ccccc3)CC2)nnc1-c1c[nH]c2ccccc12 | inconclusive [inhibitor, partial curve, poor fit] |  |
| O=C(NCCCN1CCc2ccccc2C1)Nc1ccc(Cl)cc1 |  | inactive: -4.07% |
| Cc1ccc(C(=O)OCC(=O)c2cc(C)n(CC3CCCO3)c2C)cc1 (configuration not stated) | inconclusive [inhibitor, partial curve, poor fit] |  |
| Cc1ccccc1-c1nnc(SCc2ccccc2F)o1 |  | inactive: 0% |
| Cc1[nH]c2ccc(C(=O)OCC(=O)Nc3cccc(S(N)(=O)=O)c3)cc2c1C |  | inactive: 16.3% |
| CCOC(=O)C1=C(C)N=C2c3ccccc3C(=O)C2C1c1ccc(Cl)cc1 (configuration not stated) | inconclusive [inhibitor, partial curve] |  |
| CCc1nc2ccc(C(=O)Nc3ccc4c(c3)OCC(=O)N4)cn2c1N(CC)Cc1cccc(Br)c1 | inconclusive [inhibitor, single point] |  |
| Cc1ccc(CSc2ccc(S(=O)(=O)N3CCCC3)cn2)cc1 | inconclusive [inhibitor, single point] |  |
| O=C(CCCCn1c(=S)[nH]c2ccsc2c1=O)NCc1ccc2c(c1)OCO2 |  | inactive: 19.1% |
| Cn1c(=O)[nH]c(=O)c2c1nc1n2CCN1c1ccccc1 |  | inactive: 4.72% |
| CC1CC2(CC(CN(C3CCCCC3)C3CCCCC3)OC2=O)C(=O)O1 (configuration not stated) |  | inactive: 20.9% |
| CC(=O)c1cc2c(cc1NC(=O)c1cnn(-c3ccc(C)cc3)c1-n1cccc1)OCO2 |  | inactive: 9.64% |
| O=C(N1CCCCC1)C1(c2ccccc2)CCCCC1 | inconclusive [inhibitor, single point] |  |
| O=C(NCCC1=CCCCC1)c1ccc2c(c1)N(Cc1cccc(Cl)c1)C(=O)c1ccccc1S2(=O)=O | inconclusive [inhibitor, partial curve] |  |
| COCCC(=O)N1CCc2c([nH]c3ccccc23)C1C(C)(C)C (configuration not stated) | inconclusive [inhibitor, single point] |  |
| c1ccc(OCCNc2nc(NCC3CC3)nc3ccsc23)cc1 | active: 8.91 µM |  |
| O=C(Nc1cccc(C(F)(F)F)c1)c1cncs1 | inconclusive [inhibitor, single point] |  |
| Cc1c(NC(=O)CN2CCN(c3cccc(Cl)c3)CC2)c(=O)n(-c2ccccc2)n1C | inconclusive [inhibitor, single point] |  |

| Structure (SMILES) | Potency | activity change, negative = inhibition |
| --- | --- | --- |
| CCN(CC)S(=O)(=O)c1ccc(N2CCOCC2)c(NC(=O)Cc2ccccc2)c1 |  | inactive: 2.33% |
| CCCCN(CC)Cc1ccc(CNC(=S)Nc2cccc(F)c2)o1 | inconclusive [inhibitor, partial curve, poor fit] |  |
| CCOC(=O)C1=C(CN(CC)Cc2ccccc2)NC(=O)NC1c1ccc(OC(C)C)cc1 (configuration not stated) | inconclusive [inhibitor, single point] |  |
| Cc1csc(N(C(=O)Cc2ccccc2F)c2ccccc2)n1 | inconclusive [inhibitor, single point] |  |
| COc1ccc(/C=C/c2nc3cc(-c4ccccc4)ccc3o2)cc1O |  | inactive: 6.48% |
| NC(Cc1ccc(F)cc1)c1csc(Nc2cc(NCc3ccco3)ncn2)n1 (configuration not stated) | inconclusive [inhibitor, partial curve, poor fit] |  |
| O=C(NC1=C(Nc2ccc(F)cc2)C(=O)c2ccccc2C1=O)c1ccc(Cl)cc1 | inconclusive [inhibitor, partial curve, poor fit] |  |
| Oc1ccc(C(=S)N2CCN(c3cccc(Cl)c3)CC2)cc1 | inconclusive [inhibitor, partial curve, poor fit] |  |
| O=c1cc(CSc2ccc(Cl)cc2)nc(-c2ccccc2)[nH]1 |  | inactive: 4.9% |
| O=C(Cc1ccccc1)Nc1cccc(S(=O)(=O)N2CCCCCC2)c1 | inconclusive [inhibitor, single point] |  |
| CCN(C(=O)c1nn(-c2ccc(OC)c(Cl)c2)c(=O)c2c1c1ccccc1n2C)c1cc(OC)ccc1OC |  | inactive: -7.76% |
| S=C(c1ccc(-c2ccc(Cl)c(Cl)c2)o1)N1CCOCC1 | inconclusive [inhibitor, single point] |  |
| Cc1[nH]c2ccccc2c1C(=O)C(=O)NCCC1=CCCCC1 | inconclusive [inhibitor, single point] |  |
| Cc1ccc(C(=O)NCC(c2cccs2)S(=O)(=O)c2cccs2)cc1C (configuration not stated) | inconclusive [inhibitor, single point] |  |
| COc1cccc(CN(C)CC(=O)Nc2cc3oc4ccccc4c3cc2OC)c1 | inconclusive [inhibitor, single point] |  |
| COc1cccc(C(=O)Nc2ccc(C)cc2)c1 | inconclusive [inhibitor, single point] |  |
| CC1CCN(CCCCOc2ccc(Cl)cc2)CC1 | inconclusive [inhibitor, single point] |  |
| Clc1ccc2nc(C3CCN(Cc4nnnn4C4CCCCC4)CC3)[nH]c2c1 | inconclusive [inhibitor, partial curve, poor fit] |  |
| CCCCCCCCS(=O)c1sc2nc3c(cc2c1N)CCCC3 (configuration not stated) | inconclusive [inhibitor, single point] |  |
| CCOc1ccccc1Nc1nnc(SCC(=O)NC2CCS(=O)(=O)C2)s1 (configuration not stated) |  | inactive: 20.1% |
| Cc1ccc(C)c(NC(=S)Nc2ncccc2C)c1 | inconclusive [inhibitor, single point] |  |
| O=C(NCCN1CCOCC1)C(=O)NCC1OCCN1S(=O)(=O)c1ccccc1 (configuration not stated) |  | inactive: 1.84% |
| O=C(CS(=O)(=O)c1ccc(F)cc1)Nc1nnc(-c2cccs2)o1 |  | inactive: 2.26% |

| Structure (SMILES) | Potency | activity change, negative = inhibition |
| --- | --- | --- |
| Cc1nnc(NC(=O)c2cccc(S(=O)(=O)N3CC(c4ccccc4)CC3=O)c2)s1 (configuration not stated) |  | inactive: -0.001% |
| O=C(Cc1ccccc1)Nc1ccc2oc(-c3cccnc3)nc2c1 |  | inactive: 11.8% |
| Cc1ccc(S(=O)(=O)N2[C@H](c3ccc(Cl)cc3)CC(=O)[C@@H]3CN(S(=O)(=O)c4ccccc4C)[C@H](c4ccc(Cl)cc4)C[C@@H]32)cc1 |  | inactive: -14.9% |
| Cn1c(NCc2cccnc2)nc2cc(-c3cccc(C(F)(F)F)c3)sc2c1=O |  | inactive: 25.6% |
| CC(C)NC(=S)Nc1ccc(Oc2ccccc2)cc1 | inconclusive [inhibitor, partial curve, poor fit] |  |
| CCSc1nnc(NC(=O)c2ccc3c(c2)OCO3)s1 |  | inactive: 9.17% |
| Cc1ccc2nc(N3CCC(C(=O)NC4CCCCC4)CC3)sc2c1 | inconclusive [inhibitor, partial curve, poor fit] |  |
| Cc1ccc(C)c(-n2nnc(-c3nc(-c4ccc(Cl)cc4)no3)c2N)c1 |  | inactive: 1.93% |
| CCCCc1c(-c2ccccc2Br)ncn1CCc1ccccc1OC | inconclusive [inhibitor, single point] |  |
| CCC1CCCCN1CCCNC(=O)c1cn(CC)c2ccc(S(=O)(=O)N3CCc4ccccc4C3)cc2c1=O (configuration not stated) | inconclusive [inhibitor, single point] |  |
| O=C1C=CC(=O)N1CCCCCCCCCCN1C(=O)C=CC1=O | inconclusive [inhibitor, single point] |  |
| Nc1ncnc2c1ncn2[C@@H]1O[C@H](CNCc2ccc(OCc3ccccc3)cc2)[C@@H](O)[C@H]1O | inconclusive [inhibitor, single point] |  |
| O=S(=O)(Nc1ccc(N2CCCCC2)cc1)c1ccc(F)cc1F | inconclusive [inhibitor, single point] |  |
| CC(=O)c1cccc(OCc2cc(C(=O)N3CC4C[C@@H]5CC3C[C@H](C4)C5)no2)c1 | inconclusive [inhibitor, single point] |  |
| CC(C)NC(=O)c1ccc(CSCc2ccccc2Cl)o1 | active: 8.91 µM |  |
| C[C@@H]1CN([C@@H](C)CO)C(=O)Cc2cc(NC(=O)Nc3ccc(C(F)(F)F)cc3)ccc2O[C@@H]1CN(C)S(=O)(=O)c1ccc(Cl)cc1 | active: 5.62 µM |  |
| OC(c1ccccc1)(c1nc(-c2cc3ccccc3o2)cs1)C(F)(F)F (configuration not stated) | inconclusive [inhibitor, partial curve, poor fit] |  |
| CCOC(=O)N1CCC(NCCNC(=O)c2ccc(Cl)cc2)CC1 | inconclusive [inhibitor, single point] |  |
| Cc1ccc(C(=O)N2CC(=O)Nc3ccc(F)cc3C2c2ccc(F)cc2)cc1[N+](=O)[O-] (configuration not stated) | inconclusive [inhibitor, single point] |  |
| CC(=O)Nc1ccc(NC(=O)c2cc([N+](=O)[O-])cc([N+](=O)[O-])c2)cc1 |  | inactive: 1.6% |
| COC(=O)c1ccccc1NC1=C/C(=N\S(=O)(=O)c2cccs2)c2ccccc2C1=O | inconclusive [inhibitor, single point] |  |

Reference: PubChem BioAssay AID624417 (National Center for Advancing Translational Sciences (NCATS), 2012)
